Measured values: the supplement of paper PMC11417369
This is one part of the list.

These sequences were tested on PfHDP1 homeodomain (GST-tagged) (assay: gcPBM binding intensity (ln(normalized median fluorescence intensity)); higher = stronger DNA binding).
Outline: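 Alexa488 anti-GST antibody, scanned at 488 nm, detected GST-tagged P. falciparum DNA-binding domains that had been expressed in E. coli and incubated for 1 h on an Agilent 4 × 180k array. The array carried primer-extended double-stranded 36-bp intergenic genomic probes and negative controls. Binding intensity is the highest Masliner-normalised natural-log median intensity across replicate spots of either orientation of each probe.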

Sequence	gcPBM binding intensity (ln)
AAAAAAAAAATGTGCACACGCGTACACCCAAAAAAA [CACACA_site5149]	9.65
TTTTTGTATCCTTCTTCTTTTTCCAGACTACATTAT [XGTACX_negctrl_site216]	7.13
TATAAAAATAATATTACACACATGTAAAATGGCTGT [CACACA_site5755]	6.1
TAAATATATGCATATACACACAACAAAAAAATATAT [CACACA_site2341]	7.25
TTGTGGATTTTGTGCGCACACACATGCAAAAAGAAA [CACACA_site1147]	9.58
TCTCAGTAAATTAAATGTACATAAGGGAGGAACTAT [XGTACX_site8045]	6.6
CACAGACATATATATACACACTTTTATTTAAATAAC [CACACA_site4962]	7.16
TACATATGGCACATATGTACACACGTATAGATAATA [XGTACX_site4123]	6.76
ATGAATATAAAATATACACACTTATATATCGAATGA [CACACA_site6240]	6.12
TTTTATTTTTTCTCACGTACAAATATATAATTTTTT [XGTACX_site6952]	6.56
AATATATCCTATTCGAACAAAAATACATGCACATAT [CACACA_negctrl_site1058]	10.1
GTATATATATATATATGTACATATATGTAGATATAT [XGTACX_site5431]	6.61
ATATGTACGCAAGGTGCACACTGGTGCATTAAAAAA [CACACA_site1801]	11.5
ATAAAATTTATATAAGCACACAAATATATATTTATA [CACACA_site9083]	6.43
TTATGGTTATACATATGTACATATATATATATATAT [XGTACX_site1494]	9.26
GTAAAGGCTATATATGTGCACATTTTTTTTTTTTTT [GTGCAC_site9925]	10.9
AATTGCATAATATATTCACACATTTTTAAGTGATAC [CACACA_site5679]	6.82
TATCATTATGTAGAAACACACATAAGCTTCGGTTCA [CACACA_site2766]	5.94
GGGGAAAAAAAAAAAGGAAAAAGAAAAAAAAAAAAA [GTGCAC_negctrl_site489]	5.96
AACATATAAATAAACTGTACATATATATATATATAT [XGTACX_site1056]	9.37
AATATTACGTGTTTGGTATTTTTCGATGTTGGCAGG [XGTACX_negctrl_site59]	6.58
ATATTATTTTAAAAAAGTACATTTTTAAGAATTCTT [XGTACX_site6630]	6.5
TATACGGACTCTAAGTGTACTTAAAATAATTCAAAC [XGTACX_site3606]	6.38

Sequence	gcPBM binding intensity (ln)
TATGTGTGACAAAATTGTACGGTCTCTTTATTTTGT [XGTACX_site2679]	6.37
TATTATATAATAAAAATTATTATTATTTGTATAAAT [CACACA_negctrl_site195]	6.26
TAAAAATGTTGACACACACACATAAATATATTTTAT [CACACA_site7227]	6.65
TATATTGCCCTTCACACACACACATATATATATATA [CACACA_site2492]	9.23
ATTTTTATACCTAAGTGTACATGATGTTTTCTTTTT [XGTACX_site973]	6.69
TGTTTCCTATTTTGTATGCACTTTTTGTCATAATTA [GTGCAC_site9921]	7.86
TAAATAAATAAAAAAACACACATATAAATATAAATA [CACACA_site7815]	6.47
TTACTATATAATATGTGTACACAACATATAATATAT [XGTACX_site1383]	6.81
GTTGTGTAATTCGTAACACACATAAAATATAAATAA [CACACA_site7799]	6.55
AAAAAAAAAAAAAAAAAAAAAAAAATATATATATAT [CACACA_negctrl_site436]	8.97
TTTTTTTTTTGATGTTGTACTTATATACTATATAAT [XGTACX_site2778]	6.38
CATTTTTAAAAAAATTGTACAAAACATATATGTGTA [XGTACX_site3396]	6.73
TTCCTTTTGAACTCTCGTACGCGTAGGTGTTATTAT [XGTACX_site6264]	6.67
TATTAAAAGTAAAAAACACACATGGATATATACATA [CACACA_site3959]	6.65
AATATATAGCTAAAAACACACAAATATATACTCATA [CACACA_site5904]	6.55
TTTATAAAATTTATTGCACACAATTATTTTATAATT [CACACA_site2489]	9.98
CTCACGTAGCTTGATGCATGCAAACTTGAGTAAAAG [TGCATGCA_site409]	6.94
ATACATTTTTTTTTCACACATATATATATATTTAAT [CACACA_site5995]	7.31
ATATATATATATTGCACACATATAAATATATATATT [CACACA_site807]	10.6
CAACCTTTTTTGTTGGTGCATAATTTTTTTTTCTTT	9.44
AAAAAAAAAGTATATATATATTTAAGGAATTCTCTC [GTGCAC_negctrl_site454]	6.33
TAAACAGACATACATACACACATACATACAGACATA [CACACA_site6997]	6.63
CATATACTCGGACACACACACACACCGACAAAAAAA [CACACA_site4433]	7.21

Sequence	gcPBM binding intensity (ln)
TATCATAAAATATGTAGTACGTATATATATAAAAAT [XGTACX_site5455]	6.89
TTTATAGTTTTTAATAGTACACATATTTTTAAGTAT [XGTACX_site5498]	6.38
TTTTGTGGAGGATGGTGTACGGTATTGTATTATTAC [XGTACX_site1942]	6.8
TTTTCATTTTTCTTTACACACATATATTTATTTATA [CACACA_site7119]	7.15
GTTAATATTTACTACACACACTTAAAATATGTATAT [CACACA_site4194]	6.63
ATATTATAATTAAAACGTACGTATTTATGAATTCAT [XGTACX_site1047]	6.8
TATTAATTAAACCATACACACATAATTTTTTTATAA [CACACA_site843]	6.47
TACATAAATTAAAACACACACACACTAAAAAAAAAA [CACACA_site7130]	6.73
TATATATATATATATATTGAAATTTATAATAATATT [TGCATGCA_negctrl_site407]	9.28
ATTTTTTTATGTACACAAAAAAAAAAAAAAATTTAA [CACACA_negctrl_site1028]	6.23
AACATAGAAACGTTATGTACATATTGAAGGATATTA [XGTACX_site6015]	6.76
AAATATTTATACTATACACACCCAATTTAAAAAAAA [CACACA_site6669]	7.02
TATATATATATTGAAGTGCAAAATACTGTACGTAAT	9.81
GAAATAATTTCATATACACACATATACATACATACA [CACACA_site1358]	7.13
AAAAGAATATAAAGATACATTGTGATATGGGACAAA [CACACA_negctrl_site405]	6.6
TATATATATATAAACAGTACACAAATTGTAAATAAA [XGTACX_site8268]	8.73
TTAATTCTACTTATTACACACATATTAATCAAAAAT [CACACA_site1478]	6.74
ACTATACAGTTATACACACACATATATATATAATAT [CACACA_site310]	7.29
TTTTTTTTTTAATAAAGTACATATAAATTACCTAAT [XGTACX_site4434]	5.98
AGGTTAAAAATAAATACACACATTTTATGTCTGTAT [CACACA_site996]	6.38
ATTTCTAGTTTAAGATGTACTTTAATAAAAATTATT [XGTACX_site4820]	6.12
ATCTTTGGAAATTTATGTACTTATATTTATATTGTA [XGTACX_site6606]	6.49
AAATATCAACAAAAATGTACAAATGTAAAAGAATAT [XGTACX_site4676]	6.84

Sequence	gcPBM binding intensity (ln)
ATGGAAGGAAACAATAAAAAAAAAAAAAAATATATA [XGTACX_negctrl_site594]	6.02
CATTTAAAGGACAAGCTGCACTTACAAAATAAAAAA	6.44
TTTTTTATTTGACAAGCACACACTTAAATATATATA [CACACA_site3358]	6.54
AATGACAACCTTGTCACACATATATATATATATATA [CACACA_site5977]	9.42
AAATGAGTATTCATATGTACACAAATAAAAAATTAA [XGTACX_site2968]	6.49
AAAATCCACATTTTAGTACACACTTAAAAAATTATT [CACACA_site2955]	6.22
GAACATACTCAAATAGCACACACATAAATAAAAATG [CACACA_site9283]	7.48
TATATATATATAATATGTACATATAATCAACATTTT [XGTACX_site3915]	8.45
TTATATATATATATATGTACGAAAAAGAAAAAAAAG [XGTACX_site6761]	6.63
ATTTTTATATAATGAACACACATATTATATCATTTA [CACACA_site1572]	6.51
AAAAGAAAATAAGAAACACACAAAAATATGTAAAAA [CACACA_site7694]	6.48
TTAGTCATATATATATGTACACACATATATATATTT [XGTACX_site2948]	6.37
TATATATATATATATACACACATATATATAAATATA [CACACA_site2035]	9.27
TTAAAAAAAAGACACACACACATACACATATTTATA [CACACA_site7535]	6.99
CACAAAAGTAAGCACGCACACACAACCTGAAATAAA [CACACA_site166]	6.9
AAAAAAAAATACATATGTACATATACATATATATAT [XGTACX_site2975]	8.7
ATATTATATAAATATACACACATTGTTTTATAGCAT [CACACA_site2386]	6.94
ATATATTTAATTTATGGTACACATAATTTTTTTAGA [XGTACX_site848]	6.45
ATAAAATATAAAAAAAGTACAAAAAAAAAAAAAAAA [XGTACX_site6657]	6.27
TAGTAATATATATTTTGTACATAAAATAATATATAA [XGTACX_site7971]	6.27
